# Data published in the supplement of paper PMC10126150.
# Values marked as one replicate rest on one cluster of the flow cell; about a third of the high ones do not repeat.
# Tested on: ATP
# Test: switch fluorescence ratio, 500 uM ATP over buffer (Cy3 cluster intensity, sum of 5 cycles each) (fold (ratio)); higher = stronger signal-on switching upon ATP binding; sequences stand for … in TCGTCGGCAGCGTCAGATGTGTATAAGAGACAGTTTTTTTTTTTTTTTTTTTTTTTTT…TC
# Conditions: aptamer strand: ATP DNA aptamer (quencher-CACCTGGGGGAGTATTGCGGAGGAAGG + anchor), 100 nM annealed; ATP concentration: 500 uM; one replicate
# In short: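 Clusters carrying Cy3-labelled switching strands on a modified Illumina MiSeq flow-cell were annealed to 100 nM quencher-labelled ATP aptamer and imaged in selection buffer. They were imaged again after 15 min with 500 uM ATP at 22 °C, over five buffer/ATP cycles with NaOH stripping and re-annealing in between. For each cluster, the fluorescence ratio is the summed Cy3 intensity of the target cycles divided by that of the buffer cycles, averaged per switch-domain sequence. Clusters outside 100-1000 RFU were left out.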
# 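Further: ATP exposure 15 min at 22 °C before imaging.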
row,Sequence,switch fluorescence ratio
1,CACACAGTTA,1.02
2,CACAGCGATA,3.82
3,CACAGGTAAG,1.06
4,CACAGTGCTC,1.16
5,CACATCCTTA,1
6,CACATCGATA,1
7,CACATGAGGC,0.917
8,CACATGTAGG,1.08
9,CACATTAGGG,1.05
10,CACATTGTAC,1.15
11,CACCAAATTA,1.02
12,CACCATTTAG,0.994
13,CACCCAGTTC,1.18
14,CACCCGGCCT,1.06
15,CACCCTGCTC,1.05
16,CACCGGCTCT,1.03
17,CACCGGGGCG,1.06
18,CACCGGTGGT,1.05
19,CACCTAGGA,0.987
20,CACCTCTTCG,1.07
21,CACCTGGGGA,1.01
22,CACCTTCTT,1.21
23,CACCTTGAA,0.978
24,CACGA,1.03
25,CACGAAAATG,1.03
26,CACGAAGAGA,1.02

row,Sequence,switch fluorescence ratio
1,CACGACTATA,1.14
2,CACGATCCTT,1.01
3,CACGATCTAA,1.03
4,CACGATGAGA,1.03
5,CACGCAAGGT,1.8
6,CACGCCCACA,1.46
7,CACGCTGATA,1.11
8,CACGGAGCTT,1.42
9,CACGGCCCTG,0.949
10,CACGGCGGTA,1
11,CACGGCGTCC,1.02
12,CACGGGAGAG,1.06
13,CACGGGCATT,1.09
14,CACGGGGTCT,1.01
15,CACGTACGCT,1.59
16,CACGTAGAAT,1.03
17,CACGTGTTCG,1.05
18,CACGTTAAAC,1.29
19,CACGTTATT,1.12
20,CACTAATCTT,1.02
21,CACTACACGG,1.58
22,CACTACGGGG,1
23,CACTAGGCTA,1.02
24,CACTATCCT,1.09
25,CACTATCGCG,1.03
26,CACTATTGCC,1.03

row,Sequence,switch fluorescence ratio
1,CACTCAGACG,1.01
2,CACTCGCTTA,1.17
3,CACTCTTATT,0.992
4,CACTGAAGGG,1.02
5,CACTGCTACC,1.48
6,CACTGGAGCT,1.08
7,CACTGGGTAT,0.986
8,CACTTAAGAG,1.01
9,CACTTAATGT,1.03
10,CACTTCAACT,1.04
11,CACTTTAACC,1.11
12,CACTTTCAGT,0.988
13,CAGAAAGTTT,1.01
14,CAGAACGGGA,1.21
15,CAGAACTTTG,0.999
16,CAGAAGAATA,0.982
17,CAGAAGACAA,1.37
18,CAGAAGTGTT,1.03
19,CAGAATGTCC,1.01
20,CAGAATTAAA,1.01
21,CAGACCGCAG,1.12
22,CAGACCTGTA,1.08
23,CAGAGAAATA,1.03
24,CAGAGACAGT,0.961
25,CAGAGACTAA,1.05
26,CAGAGCCTAC,1.35

row,Sequence,switch fluorescence ratio
1,CAGAGGACGA,1.02
2,CAGAGGGATT,1.34
3,CAGAGGGGG,1.06
4,CAGAGTACGG,0.963
5,CAGAGTATTT,0.991
6,CAGAGTGCCA,1.01
7,CAGAGTTGGG,0.968
8,CAGATAATGG,0.982
9,CAGATCCCGT,0.974
10,CAGATCGCGT,1.01
11,CAGATCTTAA,0.973
12,CAGATGACCG,1.06
13,CAGATGCTTA,1.02
14,CAGATGGGAT,0.972
15,CAGATGTGGA,0.997
16,CAGATTACCT,1.15
17,CAGATTCGTG,0.966
18,CAGCAATTAG,3.7
19,CAGCACGAAA,1.09
20,CAGCATAACT,1.76
21,CAGCATCAAA,1.02
22,CAGCATGGG,1.05
23,CAGCCCGCTG,0.984
24,CAGCCCGTGA,1.07
25,CAGCCCTCT,1.14
26,CAGCCGCTTG,1.34

row,Sequence,switch fluorescence ratio
1,CAGCGAATCT,1.05
2,CAGCGCAGTG,0.981
3,CAGCGCCCGC,1
4,CAGCGGTTCG,1.01
5,CAGCGTCCGA,1.02
6,CAGCGTGTGA,1
7,CAGCTAGGG,1.03
8,CAGCTGCTAA,1.12
9,CAGCTGGGGC,0.975
10,CAGGACAAGG,0.94
11,CAGGACGGGC,0.763
12,CAGGACTTCA,1.01
13,CAGGAGATGC,1.08
14,CAGGATAAGT,1.01
15,CAGGCAAGCC,1.05
16,CAGGCAGATT,1.02
17,CAGGCCACTT,0.994
18,CAGGCCAGGT,1.21
19,CAGGCCTGC,1.06
20,CAGGCGGAGG,1.01
21,CAGGCGGCGA,1
22,CAGGCGGGAA,0.986
23,CAGGCGGTCG,0.981
24,CAGGCTGCCG,0.919
25,CAGGCTTAAT,1.01
26,CAGGGAAAGG,0.961

row,Sequence,switch fluorescence ratio
1,CAGGGAAGTT,1.02
2,CAGGGAATCG,1
3,CAGGGAATTC,1.04
4,CAGGGACTGC,1.03
5,CAGGGATCAT,0.977
6,CAGGGATGGT,1.04
7,CAGGGCAAAA,1.04
8,CAGGGCACTC,1.01
9,CAGGGCAGTC,1
10,CAGGGCATCA,0.952
11,CAGGGCATCT,1.04
12,CAGGGCCGCG,1.01
13,CAGGGGGAGC,1.12
14,CAGGGGGCGC,1.03
15,CAGGGTCTT,1.03
16,CAGGTACGAA,1.05
17,CAGGTATATC,0.996
18,CAGGTATTTT,0.964
19,CAGGTCAGTT,0.983
20,CAGGTCCATT,1
21,CAGGTCGTCT,1.15
22,CAGGTGATGT,1.3
23,CAGGTGATT,1.27
